According to PubChem BioAssay AID720709 (National Center for Advancing Translational Sciences (NCATS), 2013):
Among all 360,000 compounds or so, about 520 (0.14%) were called active. Inconclusive results, whose numbers are uncertain, are shown with a selection of clear calls. The call rests on the fitted dose curve; in most records, active means well fitted inhibition curve with a large enough effect; inconclusive means small, poorly fitted or top-dose-only effect; inactive means no such curve, though single readings can be large or run the other way. No potency is given beside an inconclusive call; the fits are too rough.

molecular target: Rap guanine nucleotide exchange factor 3 (Homo sapiens) (UniProt O95398); assay: qHTS for Antagonist of cAMP-regulated guanine nucleotide exchange factor 3 (EPAC1): primary screen; conditions: EPAC1 GEF assay, Rap1b-BODIPY-GDP exchange fluorescence; activity change, negative = inhibition: at 115 µM (top of the series); further: nearly all actives have a fitted effect of over 50% in size;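 on activity change, negative = inhibition: plate controls were vehicle for no effect and positive control for full effect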
UniProt O95398, sequence (O95398 whole entry, looked up): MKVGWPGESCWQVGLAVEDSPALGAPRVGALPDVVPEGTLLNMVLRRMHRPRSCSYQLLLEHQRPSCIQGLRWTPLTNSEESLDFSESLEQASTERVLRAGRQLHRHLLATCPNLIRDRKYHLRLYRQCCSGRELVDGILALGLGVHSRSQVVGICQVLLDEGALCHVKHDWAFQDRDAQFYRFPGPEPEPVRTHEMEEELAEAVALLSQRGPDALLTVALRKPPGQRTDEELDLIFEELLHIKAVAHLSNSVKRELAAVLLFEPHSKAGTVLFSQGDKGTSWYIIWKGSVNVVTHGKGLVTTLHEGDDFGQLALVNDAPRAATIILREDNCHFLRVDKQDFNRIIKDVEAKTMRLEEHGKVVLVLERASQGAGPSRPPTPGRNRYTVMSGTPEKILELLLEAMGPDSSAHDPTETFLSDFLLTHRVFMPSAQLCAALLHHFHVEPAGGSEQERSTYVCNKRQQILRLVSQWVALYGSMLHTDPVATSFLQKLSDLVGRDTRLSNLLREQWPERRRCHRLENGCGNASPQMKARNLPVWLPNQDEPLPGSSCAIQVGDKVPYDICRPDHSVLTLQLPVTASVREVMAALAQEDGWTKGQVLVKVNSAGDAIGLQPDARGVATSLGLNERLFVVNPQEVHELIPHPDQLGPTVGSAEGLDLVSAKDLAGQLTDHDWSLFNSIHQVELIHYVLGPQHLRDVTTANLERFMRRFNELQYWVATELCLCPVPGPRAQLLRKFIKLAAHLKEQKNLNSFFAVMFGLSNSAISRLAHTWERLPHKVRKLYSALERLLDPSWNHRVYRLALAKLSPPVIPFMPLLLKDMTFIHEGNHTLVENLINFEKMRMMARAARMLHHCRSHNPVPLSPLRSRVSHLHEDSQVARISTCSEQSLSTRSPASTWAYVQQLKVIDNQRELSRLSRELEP
Potency means the concentration at half of the fitted maximal effect; tags describe the fitted curve by direction and shape.

Compound	Potency	activity change, negative = inhibition
Oc1ccc(CCNc2ncnc3ccc(Cl)cc23)cc1	inactive	
O=c1[nH]c(N/N=C/c2cc3c(cc2[N+](=O)[O-])OCO3)nc2ccccc12	inactive	
COc1ccc(S(=O)(=O)Nc2cccc(C)c2C)c2cccnc12	inconclusive [inhibitor, single point]	
CC1=C(C(=O)OC(C)C)C(c2cccs2)N2C(=O)C(C)SC2=N1 (configuration not stated)	inconclusive [inhibitor, partial curve, poor fit]	
CC(Sc1nncn1C)C(=O)Nc1ccc2ccccc2c1 (configuration not stated)	inconclusive [inhibitor, single point]	
CCN(CC(=O)NCc1ccc(Cl)cc1)C(=O)CCOc1ccc(C)cc1	inconclusive [inhibitor, single point]	
CC(C)c1ccc(NC(=O)C2C3C=CC4(O3)C2C(=O)N(CCN2CCOCC2)C4C(=O)NC2CCCCC2)cc1 (configuration not stated)	inactive	
COc1cc(NS(=O)(=O)c2ccc(Nc3nc(-c4ccccc4)cs3)cc2)nc(OC)n1	active: 79.4 µM	
O=C(O)c1ccccc1NS(=O)(=O)c1ccc(NN=Cc2cccc(Cl)c2)c([N+](=O)[O-])c1	active: 50.1 µM	
COC(=O)CC1COc2ccccc2N1C(=O)c1ccc(Cl)cc1 (configuration not stated)	inconclusive [inhibitor, partial curve, poor fit]	
Cc1noc(NS(=O)(=O)c2ccc(NC(=O)/C=C/c3ccc(C(C)C)cc3)cc2)c1C	inconclusive [inhibitor, partial curve]	
CCOc1ccc(C(=O)Nc2cc(-c3nc4ccccc4[nH]3)ccc2Cl)cc1[N+](=O)[O-]	inconclusive [inhibitor, partial curve]	
O=C(Nc1ccc2cn[nH]c2c1)c1c(Cl)cccc1Cl	inactive	
COc1ccc(C(C)=O)cc1COC(=O)c1cccnc1SC	inconclusive [inhibitor, partial curve]	
C=C1[C@@H](O)[C@H](Cc2ccccc2)N(Cc2ccccc2Br)S1(=O)=O	inconclusive [inhibitor, full curve]	
O=C(c1ccc(Cl)c(Cl)c1)N(Cc1ccco1)c1ccc(O)cc1	inactive	
COC(=O)c1ccc(NC(=O)CCOc2ccccc2)cc1	inconclusive [inhibitor, partial curve]	
COCCCNC(=O)C[C@@H]1C[C@@]2(C(=O)OC)CC(C)(C)CC=C2N(Cc2ccccc2)C1=O	inactive	
CC(=O)N1c2ccc(S(=O)(=O)N(C)CC(=O)Nc3ccccc3C)cc2CC1C (configuration not stated)	inconclusive [inhibitor, partial curve]	
CCOC(=O)C1=CN(Cc2cccc(F)c2)S(=O)(=O)NC1c1ccc(Br)cc1F (configuration not stated)	inconclusive [inhibitor, single point]	
COc1cccc(/C=N/NC(=O)c2[nH]nc3c2CCc2ccccc2-3)c1O	inconclusive [inhibitor, partial curve]	
O=C(NC(=S)Nc1ccc(N2CCOCC2)cc1)c1ccccc1	inactive	
Cc1ccc(S(=O)(=O)NC(=O)C2(C)CCN2C(=O)c2cccc(F)c2)nc1 (configuration not stated)	inconclusive [inhibitor, partial curve, poor fit]	

Compound	Potency	activity change, negative = inhibition
O=c1c(O)c(-c2cccs2)oc2ccccc12	inactive	
COc1ccc(CCNCCC(c2ccccc2)c2ccccc2)cc1OC	inactive	
COc1cc(/C=N\NC(=O)C(C)(C)O)ccc1OC/C=C/c1ccccc1		inconclusive: -30.1% [inhibitor]
CCC(C(=O)NCc1cccc(C)c1)n1nc(C)c2c(C)n(-c3ccccc3)nc2c1=O (configuration not stated)	inconclusive [inhibitor, single point]	
CCOc1ccc(NC(=O)CN(C)C(=O)c2ccc(NC3CC3)c([N+](=O)[O-])c2)cc1OCC	inconclusive [inhibitor, full curve, poor fit]	
CC(C)CC(=O)Nc1c2c(nn1-c1cccc(Cl)c1)CS(=O)(=O)C2	inconclusive [inhibitor, single point]	
CSc1nnc(N2C(=O)C(O)=C(C(=O)c3ccco3)C2c2ccc(F)cc2)s1 (configuration not stated)	inconclusive [inhibitor, partial curve, poor fit]	
CC(=O)c1ccc(N2CCN(S(=O)(=O)c3c(C)[nH]c(C)c3C(=O)N3CCCCC3)CC2)cc1	inconclusive [inhibitor, single point]	
COc1ccc(C(=O)CSc2nnc(-c3ccco3)c(-c3ccco3)n2)cc1	inconclusive [inhibitor, partial curve]	
Brc1[nH]nc2ccccc12	inactive	
Cc1ccc(C2(c3ccccc3)NC(=O)N(CC(=O)NCc3ccco3)C2=O)cc1C (configuration not stated)	inconclusive [inhibitor, single point]	
O=NN(CC(=O)NN=CC=Cc1ccccc1)CC(=O)NN=CC=Cc1ccccc1	inconclusive [inhibitor, partial curve]	
COc1cccc(CNC(=O)CCC2CCCN(C(=O)c3cccc4c(C)c(C)[nH]c34)C2)c1 (configuration not stated)	inconclusive [inhibitor, full curve, poor fit]	
Cc1noc(C)c1S(=O)(=O)N1CCN(c2ccc([N+](=O)[O-])cc2)CC1	inconclusive [inhibitor, full curve, poor fit]	
COc1ccc(-c2nn(-c3ccccc3)cc2/C=C\C(=O)Nc2ccc(C(=O)O)cc2)cc1	inconclusive [inhibitor, single point]	
CC(C)(C)c1ccc(OCCC(=O)Nc2cccc(S(=O)(=O)N3CCCC3)c2)cc1	inconclusive [inhibitor, single point]	
COc1ccnc(Oc2ccc(F)cc2)c1C(=O)N/C=N/OCc1cccc(F)c1	inconclusive [inhibitor, single point]	
O=C(C1CCCN(Cc2ccc(Cl)cc2)C1)N1CCCCC1 (configuration not stated)	inactive	
CCOC(=O)c1c(NC(=O)Cn2ccsc2=N)sc(C)c1C	inconclusive [inhibitor, partial curve, poor fit]	
CC(=O)c1cccc(-c2ccnc3c2CC(C(=O)Nc2cccc(NS(C)(=O)=O)c2)O3)c1 (configuration not stated)	inactive	
CN(c1ccc(O)cc1)S(=O)(=O)c1ccc2ccccc2c1	inconclusive [inhibitor, single point]	
Cc1ccc(C=Nc2ccc(N(C)C)cc2)o1	inactive	
C=C/C(C)=C/CC1C(=C)CCC2C(C)(C(=O)O)CCCC12C (configuration not stated)	inconclusive [inhibitor, single point]	

Compound	Potency	activity change, negative = inhibition
COc1ccc(-c2nnc(SCC(=O)O)n2Cc2ccccc2)cc1	inconclusive [inhibitor, partial curve]	
O=C1c2cc(S(=O)(=O)NCCO)ccc2-c2ccc(S(=O)(=O)NCCO)cc21	inactive	
c1ccc(CCc2nn3c(Cn4nnc5ccccc54)nnc3s2)cc1	inactive	
COc1ccccc1N1CCN(C(=O)CNC(=O)c2ccc(Cl)cc2Cl)CC1	inconclusive [inhibitor, partial curve]	
O=C(O)CN1C(=O)/C(=C\c2cccc(OCc3ccc(Cl)cc3Cl)c2)SC1=S	inconclusive [inhibitor, single point]	
CC(C)(C)OC(=O)N1CCC(c2c(C(=O)NCC3CCN(C4CCCC4)C3)cnn2-c2ccc(F)cc2)CC1 (configuration not stated)	inconclusive [inhibitor, partial curve]	
C(=Cc1cccnc1)c1ccncc1	inactive	
Cc1ccc(S(=O)(=O)NCCSc2nncn2C)cc1	inactive	
Cc1ccc(OCC(=O)N/N=C/C=C/c2ccco2)cc1	inconclusive [inhibitor, single point]	
Cn1c(NCc2cccnc2)nc2cc(-c3ccc(C(=O)N4CCOCC4)cc3)sc2c1=O	inconclusive [inhibitor, single point]	
CC(C)N(Cc1ccccc1)C(=O)CN1C(=O)COc2ccc(S(=O)(=O)NC3CCCC3)cc21	inconclusive [inhibitor, full curve, poor fit]	
Cc1ccc(S(=O)(=O)N2CCN(C(C)C(=O)Nc3ccccc3-c3ccccc3)CC2)cc1 (configuration not stated)	inconclusive [inhibitor, single point]	
Cc1cc(SCC(=O)c2cccc([N+](=O)[O-])c2)nc(=O)[nH]1	inconclusive [inhibitor, single point]	
CCOc1cccc2c1OC1(C)CC2NC(=O)N1Cc1ccccc1 (configuration not stated)	inconclusive [inhibitor, partial curve]	
O=C(O)c1ccccc1/C=N/NC(=O)c1cc(-c2ccco2)nc2ccccc12	inconclusive [inhibitor, partial curve]	
Cc1ccc(NC(=S)N(Cc2cccc(Br)c2)CC2CCC(C(=O)O)CC2)cc1Cl (configuration not stated)	inconclusive [inhibitor, partial curve, poor fit]	
COc1ccc(/C=C/C(=O)NC2CCS(=O)(=O)C2)cc1 (configuration not stated)	inconclusive [inhibitor, single point]	
N#Cc1ccc(Oc2ccc(S(=O)(=O)N3CCCCC3)cn2)cc1	inactive	
O=C(O)CCC(=O)N1CCN(S(=O)(=O)c2cccs2)CC1	inactive	
O=S(=O)(NCc1ccccc1)c1ccc(-c2cnc(C3CC3)o2)cc1	inactive	
O=C(CSc1n[nH]c(=O)n1Cc1ccccc1)Nc1ccc(F)c(F)c1F	inconclusive [inhibitor, single point]	
